Each structure is given as a SMILES string. In all, about 48,000 compounds went through this assay and about 120 (0.25%) were called active. Inconclusive results (about 4%) are left out. The call rests on the fitted dose curve; in most records, active means well fitted activation curve with a large enough effect; inconclusive means small, poorly fitted or top-dose-only effect, or another doubt; inactive means no such curve, though single readings can be large or run the other way. Some of the results follow.

This assay can be described thus: Primary qHTS for Identification of Small Molecule Activators of Huntingtin-Antisense Promoter Activity. Further: nearly all actives have a fitted effect of over 55% in size. Conditions: HEK293 HTT-AS promoter firefly luciferase reporter (activity 0% = vehicle and -100% = no light), 24 h; series mostly up to 57.5 µM; activity change, positive = activation: at the top concentration. Put shortly:
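Quantitative HTS used concentration series of up to 57.5 uM final on HEK293 luciferase reporter cells, 24 h at 37 degrees C. Readout was Dual-Glo firefly luminescence.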
For `Cc1nn(-c2ccccc2)c2nc(C3CC3)cc(C(=O)Nc3cccc(F)c3)c12`, the “activity change, positive = activation” value is inactive: -38.3%. `CC(=O)Nc1ccc(S(=O)(=O)NCCc2csc3nc(-c4ccc(Cl)cc4)nn23)cc1`: the “activity change, positive = activation” value is inactive: -41.3%. Consider `CC(C)(C)OC(=O)N1CCC(c2c(C(=O)N3CCN(c4cccc(Cl)c4)CC3)cnn2-c2cccc(Cl)c2)CC1`, for which the “activity change, positive = activation” value is inactive: -16.1%. For `CCc1ccc(NC(=O)C2CCCN(S(=O)(=O)c3ccc4[nH]c(=O)ccc4c3)C2)cc1` (configuration not stated), the “activity change, positive = activation” value was inactive: -40.2%. With `CCOC(=O)C1CCN(C(=O)Cn2nc(C)n3c(cc4c(OC)cccc43)c2=O)CC1`, the “activity change, positive = activation” value was inactive: -19.7%. For the compound `CCC1CN(C(=O)NCc2ccc(F)cc2)c2cc(C)ccc2O1` (configuration not stated), the “activity change, positive = activation” value was inactive: -14.9%. In the case of `O=C(CSc1ccnc(=O)[nH]1)NCc1ccc(F)cc1` it was inactive: -11.5%; in that of `COc1cccc(C(c2sc3nc(-c4ccco4)nn3c2O)N2CCC(C)CC2)c1` (configuration not stated), inactive: -3.46%. As to `Cc1cccc2c(=O)cc(CSc3ccccc3NC(=O)c3cccc(Cl)c3)[nH]c12`, the “activity change, positive = activation” value was inactive: -17.7%. `Cc1ccc2nc(CSc3nnc(NC(=O)C(C)C)s3)cc(=O)n2c1`: the “activity change, positive = activation” value is inactive: -3.46%.

As for `CCOc1ccc(-c2cc3c(=O)n(Cc4nc(-c5ccc(OCC)c(OC)c5)oc4C)ccn3n2)cc1Cl`, the “activity change, positive = activation” value is inactive: -15.4%.

With `CCCCn1cc2c(c1-c1ccc(Br)cc1)c(=O)n(C)c(=O)n2C`, the “activity change, positive = activation” value is inactive: -31.1%.

`CSc1ccc(C2c3c(-c4ccccc4O)n[nH]c3C(=O)N2Cc2ccncc2)cc1` (configuration not stated): the “activity change, positive = activation” value is inactive: -37%. Take `Cc1cccc(OCC(=O)Nc2c(C(=O)Nc3ccc(F)cc3)oc3ccccc23)c1`: the “activity change, positive = activation” value is inactive: 15.4%. Then `Cc1cccc(N2C(=O)CSC23C(=O)N(C)c2ccccc23)c1` (configuration not stated), with inactive: -14.8%.

For the compound `Cc1cccc(C(=O)NCCc2nc3ccccc3n2CCC(C)C)c1`, the “activity change, positive = activation” value is inactive: -13.5%. In the case of `CN[C@@H]1[C@@H](O)[C@@H](O[C@@H]2[C@@H](O)[C@H](O[C@H]3O[C@H](CN)[C@@H](O)[C@H](O)[C@@H]3O)[C@@H](N)C[C@@H]2NC(=O)[C@@H](O)CN)OC[C@]1(C)O` it was inactive: -13.1%. Consider `O=c1c2sc3ccccc3c2n(Cc2cccc(Cl)c2)c(=O)n1Cc1ccccc1`, for which the “activity change, positive = activation” value is inactive: -27.1%. Regarding `CCOc1ccc(OCC)c(NC(=O)c2cnn(-c3ccc(F)cc3)c2-n2cccc2)c1`, the “activity change, positive = activation” value was inactive: -24.7%. For `CCc1ccc(-n2nc(C)c3c(C)cc(=O)n(CC(=O)Nc4cc(Cl)ccc4OC)c32)cc1`, the “activity change, positive = activation” value was inactive: 2.67%.

Consider `COc1cc(NC(=O)NCCc2c(C)nn(C)c2C)cc(OC)c1OC`, for which the “activity change, positive = activation” value was inactive: -9.18%.

`CCCN1CCN(c2nnc(-n3cccc3C(=O)Nc3ccccc3C(F)(F)F)s2)CC1`: the “activity change, positive = activation” value is inactive: -6.54%.

Consider `Cc1nc2nc(NCc3ccccc3Cl)[nH]n2c(=O)c1Cc1ccccc1`, for which the “activity change, positive = activation” value is inactive: -9.26%. `CCOC(=O)c1cnc2c(C)cc(C)cc2c1NCCN1CCOCC1`: the “activity change, positive = activation” value was inactive: -3.49%. Consider `O=C(Nc1ccccc1OCc1cc(=O)n2ccccc2n1)Nc1ccccc1C(F)(F)F`, for which the “activity change, positive = activation” value was inactive: 7.25%. Then `CCCSC1=NC2(CCN(C(=O)NC3CCCCC3)CC2)N=C1c1ccc(C)cc1`, with inactive: -10.6%; and `Cc1ccc(C)c(OCc2nc3ccccc3n2C)c1`, with inactive: 9.89%. Take `Cc1ccccc1NC(=O)CSc1nc2c(oc3ccccc32)c(=O)n1Cc1ccco1`: the “activity change, positive = activation” value is inactive: -16.8%. Then `Cc1cccc(N(C)S(=O)(=O)c2nnc(NC(=O)C(C)Oc3ccccc3)s2)c1` (configuration not stated), with inactive: -41.7%. As to `CN1C(=O)c2ccccc2Sc2ccc(NC(=O)Cc3ccc(Cl)cc3)cc21`, the “activity change, positive = activation” value was inactive: -28.4%.

As for `COc1ccc(OC)c(CCNC(=O)c2ccc3c(c2)N(Cc2ccccc2)CCS3)c1`, the “activity change, positive = activation” value is inactive: -28.9%.

Take `COC(=O)c1sccc1S(=O)(=O)N1CCN(c2cccc(C)c2)C(C)C1` (configuration not stated): the “activity change, positive = activation” value was inactive: -28.2%. On to `O=C(NCc1ccccc1)C1CCN(c2ncnc3c2nc2n3CCCCC2)CC1`, for which the “activity change, positive = activation” value was inactive: 3.58%. As for `Cc1ccc(CCNC(=O)C2CC(=O)N(CCc3ccc(C)cc3)C2)cc1` (configuration not stated), the “activity change, positive = activation” value is inactive: -15.3%. Consider `CCOC(=O)c1cccc(NC(=O)C2COc3ccc(OC)cc3C2)c1` (configuration not stated), for which the “activity change, positive = activation” value is inactive: -25.2%. In the case of `N=c1ccn2c(n1)O[C@H]1[C@@H](O)[C@@H](CO)O[C@H]12`, the “activity change, positive = activation” value was inactive: -32.3%. Turning to `CCCCc1ccc(NC(=O)Cn2cnc3c(oc4ccccc43)c2=O)cc1`, the “activity change, positive = activation” value is inactive: 8.23%. Consider `O=C(NCc1ccc(Cl)cc1)c1ccc2c(c1)nnn2C1CCCC1`, for which the “activity change, positive = activation” value is inactive: -2.28%.

In the case of `COc1ccc(C)cc1NC(=O)CSc1nc(=O)n(Cc2ccco2)c2c1CCC2`, the “activity change, positive = activation” value was inactive: -28%. For `Cc1ccc(-n2cc(-c3ccccc3)c3c(N4CCC(C)CC4)ncnc32)cc1Cl`, the “activity change, positive = activation” value was inactive: -0.431%.

Consider `Clc1cccc(CNCCCSc2nnnn2-c2ccccc2)c1`, for which the “activity change, positive = activation” value is inactive: -7.54%. Take `COC(=O)c1scc(-c2ccc(C)cc2)c1S(=O)(=O)Nc1cc(C)c(Cl)cc1OC`: the “activity change, positive = activation” value was inactive: -39.3%.

For `Cc1cccc(N2CCN(C(=O)CCS(=O)(=O)c3ccc4c(c3)CC(=O)N4C)CC2C)c1` (configuration not stated), the “activity change, positive = activation” value is inactive: -10.5%.

In the case of `CC(=O)N1CCN(c2csc3ccc(Cl)cc3c2=O)CC1`, the “activity change, positive = activation” value is inactive: 18.9%. With `Cc1ccc(NS(=O)(=O)c2ccc3c(c2)n(C)c(=O)n3C)c(C)c1`, the “activity change, positive = activation” value is inactive: -14.7%. Then `Cc1cccc(C(c2sc3nc(-c4ccco4)nn3c2O)N2CCOCC2)c1` (configuration not stated), with inactive: -8.57%; and `CCCCOC(=O)c1ccc(NC(=O)c2ccc3c(c2)CCN3S(C)(=O)=O)cc1`, with inactive: -32.3%. Then `O=C(NCCc1cccs1)c1ccc(Cn2c(SCc3cccc(F)c3)nc3cccnc32)cc1`, with inactive: -7.52%; and `CCNc1nc2c(c(=O)n(C)c(=O)n2C)n1Cc1ccc(F)cc1`, with inactive: -18.8%.

For the compound `Cc1ccccc1S(=O)Cc1ccc(C(=O)NCc2ccccc2Cl)o1` (configuration not stated), the “activity change, positive = activation” value was inactive: -19.7%. Then `O=C(Cn1cc(C(=O)c2ccco2)c2ccccc21)Nc1ccccc1C(F)(F)F`, with inactive: -31.7%; and `Cc1ccc(CSC2=NC(C)(C)Nc3ccccc32)c(C)c1`, with inactive: -21.2%. In the case of `COc1ccc(-c2csc3ncnc(Nc4ccccc4)c23)cc1`, the “activity change, positive = activation” value is inactive: 15.6%. In the case of `Fc1cccc(CN2CCc3nc(Nc4ccc5c(c4)OCCO5)ncc3C2)c1F`, the “activity change, positive = activation” value is inactive: 8.49%. In the case of `CCOC(=O)c1c(-c2ccccc2)oc2ccc(OCc3ccccc3Br)cc12`, the “activity change, positive = activation” value is inactive: -3.89%. Regarding `CCOc1ccccc1NC(=O)Cn1c(=O)oc2ccccc21`, the “activity change, positive = activation” value was inactive: -11.5%. Consider `COc1ccc(-c2noc(N3CCC(C(=O)N4CCN(c5cccc(OC)c5)CC4)CC3)n2)cc1`, for which the “activity change, positive = activation” value was inactive: -84.4%. Turning to `COc1ccc(NC(=O)Cn2cc(C(=O)c3ccc(C)c(C)c3)c(=O)c3cc(OC)ccc32)cc1`, the “activity change, positive = activation” value is inactive: -22.2%. `CSc1ncc(Cl)c(C(=O)Nc2c(C(=O)c3ccc(Cl)cc3)oc3ccccc23)n1`: the “activity change, positive = activation” value is inactive: 3.8%. For `Cc1ccc(-n2ncc(C(=O)N3CCN(c4ccccc4F)CC3)c2C2CCN(C(=O)OC(C)(C)C)CC2)cc1C`, the “activity change, positive = activation” value was inactive: -10.1%. For the compound `Cc1cccc(OC(=O)CSc2nnc(-c3cccs3)o2)c1C`, the “activity change, positive = activation” value was inactive: -3.57%.

For the compound `CCOC(=O)c1c(S(=O)(=O)N2CCCC(C(=O)Nc3cccc(CC)c3)C2)c(C)n(CC)c1C` (configuration not stated), the “activity change, positive = activation” value is inactive: -12.5%.

Source of the values: PubChem BioAssay AID1508624 (National Center for Advancing Translational Sciences (NCATS), 2021).
